Data: patent US20220331414A1, “LIPID COMPOUNDS AND LIPID NANOPARTICLE COMPOSITIONS” (Suzhou Abogen Biosciences Co., Ltd., priority 2020, published 2022)
At least one read-out could not be matched to a standard name with certainty. Some entries repeat one wording, which the source may state once for all of them.

Tested on: human erythropoietin (hEPO) mRNA
Assay: Animal study: hEPO mRNA LNP expression in mice relative to MC3
Type: in vivo
Details: 0.5 mg/kg tail vein injection, female ICR mice, serum hEPO (e.g., 6 hours)

SMILES | Expression over MC3
CCCCCCCC(CCCCCCC)COP(=O)(NCCN(CC)CC)OCC(CCCCCCC)CCCCCCC [Compound 84] | C (≥0.1 and <1)
CCCCCCCC(CCCCCCC)COP(=O)(NCCN1CCCC1)OCC(CCCCCCC)CCCCCCC [Compound 85] | D (<0.1)
CCCCCCCCCCC(CCCCCCCCCC)COP(=O)(NCCN(CC)CC)OCC(CCCCCCCCCC)CCCCCCCCCC [Compound 86] | D (<0.1)
CCCCCCCCCCC(CCCCCCCCCC)COP(=O)(NCCN1CCCC1)OCC(CCCCCCCCCC)CCCCCCCCCC [Compound 87] | A (≥2)
CC/C=C\CCC(CC/C=C\CC)COP(=O)(NCCN(CC)CC)OCC(CC/C=C\CC)CC/C=C\CC [Compound 88] | D (<0.1)
CCCCCCCCC(CCCCCCCC)COP(=O)(NCCN(CC)CC)OCC(CCCCCC)CCCCCC (stereo not drawn) [Compound 90] | C (≥0.1 and <1)
